Results are given in words; binding and its absence hold for the method and conditions named. Binding seen in cells or lysates may run through a third protein. Some binding calls cover weakened binding; strength is not graded here.
What was measured:
[1] = biological target: VSV-G tagged Δ1-570 Grp94 polypeptide (N-terminal deleted Grp94, AA 571–782) (UniProt P14625); test: co-IP; anti-VSV-G P5D4 on lysate of C2C12 cells transfected or not with plasmid pVSV-G6B (ΔGrp94); blots with anti-SERCA2, anti-Grp94 and anti-VSV-G
[2] = biological target: Grp94/gp96 (endoplasmic reticulum chaperone), endogenous in C2C12 cells (mouse (endogenous in C2C12)) (UniProt P08113); test: co-IP; anti-Grp94 3c4 (2 ug) on about 100 ug C2C12 lysate in RIPA buffer, anti-mouse Ig agarose beads, Western blot; non-immune mouse IgG as control; untreated cells
[3] = biological target: Grp94/gp96 (endoplasmic reticulum chaperone), endogenous in C2C12 cells (mouse (endogenous in C2C12)) (UniProt P08113); test: co-IP; anti-Grp94 3C4 on lysate of C2C12 cells exposed 16 h to 10 uM L-NNA and lysed in the presence of the inhibitor
[4] = biological target: Grp94/gp96 (endoplasmic reticulum chaperone), endogenous in C2C12 cells (mouse (endogenous in C2C12)) (UniProt P08113); test: co-IP; anti-Grp94 3c4 on C2C12 lysate in RIPA buffer after cross-linking of the culture with DSP (200 ug/mL, 5 min, room temperature); linker cleaved before SDS-PAGE

Chains of the proteins cited; added tags and fusions are not shown. Lines headed by an entry give the natural chain unless they say otherwise; changes in a name come on top. Residues count along the entry.
UniProt P14625, residues 592-803: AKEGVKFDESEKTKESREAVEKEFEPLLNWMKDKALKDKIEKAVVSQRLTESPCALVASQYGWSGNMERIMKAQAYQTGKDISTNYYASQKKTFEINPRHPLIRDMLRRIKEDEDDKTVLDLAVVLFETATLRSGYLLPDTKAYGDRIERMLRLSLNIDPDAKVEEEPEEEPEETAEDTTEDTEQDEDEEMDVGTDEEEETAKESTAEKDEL
UniProt P08113, residues 22-802: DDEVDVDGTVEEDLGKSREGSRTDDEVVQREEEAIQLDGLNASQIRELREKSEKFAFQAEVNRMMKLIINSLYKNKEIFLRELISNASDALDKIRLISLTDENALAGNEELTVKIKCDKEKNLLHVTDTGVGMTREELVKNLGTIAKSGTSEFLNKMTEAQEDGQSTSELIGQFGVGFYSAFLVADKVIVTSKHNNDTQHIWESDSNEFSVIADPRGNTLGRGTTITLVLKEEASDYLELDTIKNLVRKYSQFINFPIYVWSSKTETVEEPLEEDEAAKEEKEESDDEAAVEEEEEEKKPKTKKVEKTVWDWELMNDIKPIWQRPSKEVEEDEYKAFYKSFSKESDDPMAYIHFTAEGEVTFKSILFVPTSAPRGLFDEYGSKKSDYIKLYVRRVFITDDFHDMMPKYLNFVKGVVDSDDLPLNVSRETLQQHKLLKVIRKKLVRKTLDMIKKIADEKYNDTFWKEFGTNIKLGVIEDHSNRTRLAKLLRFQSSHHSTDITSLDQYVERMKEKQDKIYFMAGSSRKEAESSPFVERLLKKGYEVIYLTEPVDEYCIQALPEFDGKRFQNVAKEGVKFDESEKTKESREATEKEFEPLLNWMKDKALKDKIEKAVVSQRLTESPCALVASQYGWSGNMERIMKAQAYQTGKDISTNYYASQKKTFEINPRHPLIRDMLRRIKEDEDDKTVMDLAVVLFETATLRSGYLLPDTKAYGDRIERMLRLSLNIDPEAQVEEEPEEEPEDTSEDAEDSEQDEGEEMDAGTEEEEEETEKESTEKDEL
UniProt O55143: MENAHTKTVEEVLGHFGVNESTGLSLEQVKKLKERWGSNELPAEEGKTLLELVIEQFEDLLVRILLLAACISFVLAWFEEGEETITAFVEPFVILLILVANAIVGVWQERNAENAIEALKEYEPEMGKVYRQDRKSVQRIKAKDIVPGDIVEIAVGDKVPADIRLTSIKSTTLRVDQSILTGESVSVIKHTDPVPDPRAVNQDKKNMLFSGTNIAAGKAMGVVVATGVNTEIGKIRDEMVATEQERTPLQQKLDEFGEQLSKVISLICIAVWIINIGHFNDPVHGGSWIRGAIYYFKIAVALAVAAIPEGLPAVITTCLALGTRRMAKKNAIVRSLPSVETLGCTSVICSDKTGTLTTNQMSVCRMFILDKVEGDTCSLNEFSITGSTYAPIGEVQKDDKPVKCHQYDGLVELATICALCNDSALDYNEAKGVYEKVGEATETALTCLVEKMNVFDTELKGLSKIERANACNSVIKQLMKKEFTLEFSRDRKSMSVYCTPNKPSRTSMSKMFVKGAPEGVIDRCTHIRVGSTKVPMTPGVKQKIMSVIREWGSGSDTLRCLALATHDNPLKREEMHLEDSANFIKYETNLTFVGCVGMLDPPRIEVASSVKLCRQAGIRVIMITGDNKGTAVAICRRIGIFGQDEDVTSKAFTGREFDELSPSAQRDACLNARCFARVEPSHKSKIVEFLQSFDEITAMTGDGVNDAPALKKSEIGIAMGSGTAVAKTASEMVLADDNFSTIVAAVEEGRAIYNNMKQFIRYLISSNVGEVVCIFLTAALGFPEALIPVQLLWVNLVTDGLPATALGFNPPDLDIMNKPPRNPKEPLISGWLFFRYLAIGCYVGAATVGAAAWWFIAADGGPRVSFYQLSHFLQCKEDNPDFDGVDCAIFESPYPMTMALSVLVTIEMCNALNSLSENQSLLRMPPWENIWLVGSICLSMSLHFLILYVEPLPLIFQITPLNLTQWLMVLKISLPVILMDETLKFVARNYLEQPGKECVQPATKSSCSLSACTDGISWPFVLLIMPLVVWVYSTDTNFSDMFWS
UniProt P14211, residues 18-416: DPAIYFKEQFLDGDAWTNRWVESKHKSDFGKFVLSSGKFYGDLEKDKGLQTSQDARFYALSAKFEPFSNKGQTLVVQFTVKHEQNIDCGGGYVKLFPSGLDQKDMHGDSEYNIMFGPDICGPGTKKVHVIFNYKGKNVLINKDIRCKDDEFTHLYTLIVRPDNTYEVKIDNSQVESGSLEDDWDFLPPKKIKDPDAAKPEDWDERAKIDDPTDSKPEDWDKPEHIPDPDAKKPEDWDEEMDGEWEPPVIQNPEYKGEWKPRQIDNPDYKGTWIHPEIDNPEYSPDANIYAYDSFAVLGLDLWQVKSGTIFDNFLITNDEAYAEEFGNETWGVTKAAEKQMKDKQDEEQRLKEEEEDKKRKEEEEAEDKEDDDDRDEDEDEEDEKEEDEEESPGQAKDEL
UniProt Q9Z0J4: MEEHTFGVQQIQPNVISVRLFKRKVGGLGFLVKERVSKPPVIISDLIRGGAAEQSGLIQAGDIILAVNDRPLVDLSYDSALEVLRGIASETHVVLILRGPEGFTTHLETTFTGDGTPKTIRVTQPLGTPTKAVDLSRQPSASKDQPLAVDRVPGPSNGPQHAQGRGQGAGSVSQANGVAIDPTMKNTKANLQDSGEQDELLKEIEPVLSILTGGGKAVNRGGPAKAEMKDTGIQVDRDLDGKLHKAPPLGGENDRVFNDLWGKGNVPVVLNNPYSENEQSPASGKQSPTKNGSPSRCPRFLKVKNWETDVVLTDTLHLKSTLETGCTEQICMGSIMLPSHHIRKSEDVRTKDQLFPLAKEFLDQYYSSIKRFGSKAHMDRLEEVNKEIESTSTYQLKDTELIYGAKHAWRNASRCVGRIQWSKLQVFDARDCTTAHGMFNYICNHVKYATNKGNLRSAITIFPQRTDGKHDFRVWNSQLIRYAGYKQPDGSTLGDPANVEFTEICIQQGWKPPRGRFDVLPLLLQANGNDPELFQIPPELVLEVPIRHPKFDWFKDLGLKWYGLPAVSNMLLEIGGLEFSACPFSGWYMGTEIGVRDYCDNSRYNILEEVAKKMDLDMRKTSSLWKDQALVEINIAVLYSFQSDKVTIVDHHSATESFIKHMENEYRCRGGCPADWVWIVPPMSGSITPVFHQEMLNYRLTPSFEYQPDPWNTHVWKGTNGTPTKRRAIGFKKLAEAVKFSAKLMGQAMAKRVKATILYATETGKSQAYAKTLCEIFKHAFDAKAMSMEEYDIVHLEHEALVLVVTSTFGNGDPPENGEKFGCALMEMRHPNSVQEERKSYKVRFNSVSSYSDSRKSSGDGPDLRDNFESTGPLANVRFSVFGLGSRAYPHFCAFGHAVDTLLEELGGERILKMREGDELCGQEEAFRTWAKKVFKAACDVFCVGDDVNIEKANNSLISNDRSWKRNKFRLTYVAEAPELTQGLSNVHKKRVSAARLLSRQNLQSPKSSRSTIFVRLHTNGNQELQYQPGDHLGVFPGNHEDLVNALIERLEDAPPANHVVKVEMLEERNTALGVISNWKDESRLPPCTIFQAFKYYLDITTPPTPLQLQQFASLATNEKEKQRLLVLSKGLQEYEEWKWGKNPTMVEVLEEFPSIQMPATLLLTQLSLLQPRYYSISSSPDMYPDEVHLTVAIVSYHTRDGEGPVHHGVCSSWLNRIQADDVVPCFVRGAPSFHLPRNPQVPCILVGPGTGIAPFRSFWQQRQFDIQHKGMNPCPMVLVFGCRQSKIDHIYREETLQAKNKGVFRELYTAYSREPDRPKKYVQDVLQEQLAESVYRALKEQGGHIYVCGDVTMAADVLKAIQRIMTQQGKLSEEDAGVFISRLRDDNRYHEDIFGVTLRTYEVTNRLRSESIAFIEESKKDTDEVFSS

For “Grp94/gp96 (endoplasmic reticulum chaperone), endogenous in C2C12 cells (from UniProt P08113 22-802)”, the binding [1] was “no binding”.

In the case of “SERCA2, endogenous in C2C12 cells (from UniProt O55143 1-1044)”, the binding [2] is reported as “binds”, the binding [1] is reported as “binds” and the binding [3] is reported as “no binding (condition: cells exposed 16 h to 10 uM L-NNA)”.

With “calreticulin, endogenous in C2C12 cells (from UniProt P14211 18-416)” the binding [4] was “no binding”.

With “nNOS, endogenous in C2C12 cells (from UniProt Q9Z0J4 1-1429) (enzyme)” the binding [2] was “binds” and the binding [3] was “no binding (condition: cells exposed 16 h to 10 uM L-NNA)”.
